The text below walks through data of PMC6212790.

The other results are listed elsewhere or left out. At the low end of the ranking, values are background and their order means little.

In the assay the target is T1, GST-Rok (full length) (UniProt O34857).
T1 sequence: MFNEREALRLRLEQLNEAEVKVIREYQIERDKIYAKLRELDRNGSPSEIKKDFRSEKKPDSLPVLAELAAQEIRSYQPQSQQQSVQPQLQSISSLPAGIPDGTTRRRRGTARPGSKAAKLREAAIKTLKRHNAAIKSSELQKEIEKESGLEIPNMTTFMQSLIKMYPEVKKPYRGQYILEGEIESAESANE
The assay is described as follows: protein binding microarray.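 Note: rank score from −0.5 (least bound) to 0.5 (best bound).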 The settings on record: Rok is a gene silencer of Bacillus subtilis; high values mean tight binding; most listed sequences are background and not binding sites; double strand, one strand shown.
TCCTCTAA registered a binding signal of -0.133 E-score. As for CACGCCTG, the binding signal is -0.118 E-score.

Sequence AATCTCAT displayed a binding signal of 0.185 E-score. Sequence GACTACCA came in with a binding signal of 0.095 E-score.

CTGGGTCC yielded a binding signal of -0.329 E-score. CTCTCCCC: the binding signal was -0.29 E-score.

For CCCCGTGC, the binding signal is -0.3 E-score. With ACCTCGTA, the binding signal was found to be 0.12 E-score. As to AGGTCTAT, the binding signal was determined as 0.0932 E-score. For GAAATTAC the value was 0.286 E-score; for AAACTTCA, 0.104 E-score. For TCCCGGGA the value was -0.39 E-score; for CGTAAACG, -0.189 E-score. In turn, CAGGATAA returned a binding signal of 0.0242 E-score. The sequence CCGGAGCC showed a binding signal of -0.308 E-score. The sequence CCCCTGGC returned a binding signal of -0.412 E-score. Turning to CTTGCAGA, the binding signal was -0.149 E-score. For ATAGGTCA, the binding signal turned out to be 0.156 E-score. For ACTTTCTG the value was 0.175 E-score; for ATGAGTCG, 0.0621 E-score. For AGTAGGTC the value was 0.069 E-score; for GCCACTTA, -0.161 E-score; for GAGAAAGA, -0.122 E-score. For CAGACTAG the value was 0.113 E-score; for ATAGCATA, 0.308 E-score. As to CGACAGAG, the binding signal was -0.0104 E-score. TCGGCTCA displayed a binding signal of -0.225 E-score.

For the sequence CCGCAGCC, the binding signal is -0.302 E-score. Then ATTGAACA, with 0.191 E-score; and ATACAAAT, with 0.32 E-score; and GGGCAATA, with -0.0992 E-score. Take CGGGCAAA: the binding signal was -0.106 E-score.

In turn, CGATGTGC showed a binding signal of -0.0809 E-score. As to GCTTGGGA, the binding signal is -0.226 E-score. Sequence CAGGCTAG had a binding signal of -0.159 E-score.

Regarding AAGGTGAG, the binding signal is -0.223 E-score. For AATTCCGA the value was 0.185 E-score; for AACTTATT, 0.0475 E-score; for CCCAGTGA, -0.232 E-score. Regarding AACTCGGT, the binding signal was 0.156 E-score. The sequence AAGATACG had a binding signal of 0.164 E-score. CGTCGGTA had a binding signal of -0.0839 E-score. The sequence AGTAAATG registered a binding signal of 0.19 E-score. Take AAGGTCGC: the binding signal is -0.255 E-score. GGCAACCA came in with a binding signal of -0.0766 E-score. Turning to GGAAGTTA, the binding signal amounted to 0.0847 E-score.

For the sequence AGATCCAA, the binding signal amounted to 0.0267 E-score.

In turn, ATCGGCTC came in with a binding signal of -0.206 E-score. For the sequence TAGAGCAA, the binding signal worked out at 0.0133 E-score. On to AGAATTTC, for which the binding signal came out at 0.301 E-score.

For the sequence GAAGGGGC, the binding signal is -0.342 E-score. Sequence GTTTATGA gave a binding signal of 0.144 E-score.

AAAACTTT returned a binding signal of 0.0531 E-score. Consider AAAATTAT, for which the binding signal was 0.215 E-score. Turning to AGGCTCCA, the binding signal is -0.278 E-score. Consider AAGATAAA, for which the binding signal is 0.251 E-score. In turn, AATAAAGG had a binding signal of 0.0251 E-score.

As to GGTTGTGA, the binding signal was -0.103 E-score.

In turn, CTAATTCA yielded a binding signal of 0.215 E-score. Turning to CCTGCGAG, the binding signal was -0.212 E-score. In turn, ACCAAGAT showed a binding signal of 0.101 E-score. As to GGCATTCA, the binding signal is -0.109 E-score. As to CAAATCCC, the binding signal was -0.231 E-score. On to CAGTTCCA, for which the binding signal is -0.114 E-score. In the case of TAGAGATA, the binding signal was 0.126 E-score.

CCACTTGC showed a binding signal of -0.132 E-score. In the case of AACCAGAC, the binding signal is -0.302 E-score. Then ACCTGGCG, with -0.215 E-score.

The sequence CACCAGGA had a binding signal of -0.158 E-score. Then GAGGCCCC, with -0.357 E-score; and CTATTAAC, with 0.233 E-score. With AGCGTAGA, the binding signal was found to be 0.167 E-score. For ATGTGGGA the value was 0.0228 E-score; for AGTACGAA, 0.249 E-score. Consider AACCATAA, for which the binding signal was determined as 0.0915 E-score. CCCCCGTC displayed a binding signal of -0.291 E-score. Then CCGTAGCC, with -0.21 E-score. Turning to CTAAATAG, the binding signal is 0.172 E-score. Take ATCTAGCG: the binding signal is 0.155 E-score. Sequence TCCTTAAA gave a binding signal of -0.0816 E-score.

For the sequence TGCAGACA, the binding signal was -0.0603 E-score. On to AAGTTCCC, for which the binding signal was -0.156 E-score. Turning to GCTATAAA, the binding signal stood at 0.28 E-score. The sequence CCTAAGTC registered a binding signal of -0.0792 E-score. In turn, CAACAGTC displayed a binding signal of -0.08 E-score. As for GTGCGATA, the binding signal was determined as 0.0114 E-score. For the sequence CCTACGGA, the binding signal is -0.227 E-score. Then CTCGGTTA, with -0.0984 E-score; and TAATTCCA, with 0.213 E-score. In turn, AGGGCCCA gave a binding signal of -0.398 E-score. AGCTCTCC returned a binding signal of -0.249 E-score. As for TGCTAAAA, the binding signal was determined as 0.186 E-score. For the sequence GCAAATCC, the binding signal is -0.0298 E-score. Consider CATGTCCA, for which the binding signal is 0.0915 E-score. As to AATTCCAA, the binding signal is 0.144 E-score. The sequence AGGAATTG registered a binding signal of 0.172 E-score. For AGGGACAC the value was -0.307 E-score. With AGATACAA, the binding signal stood at 0.259 E-score. Then ATGTAGGA, with 0.117 E-score; and AACGCCTT, with -0.0654 E-score; and ATTCTAGA, with 0.309 E-score.

For the sequence AAAGTTCG, the binding signal is 0.224 E-score.

In turn, CTTACAGC registered a binding signal of 0.00242 E-score. AATGCGAT came in with a binding signal of 0.104 E-score. Turning to ACTACTAC, the binding signal came out at 0.4 E-score. GTACTGGA showed a binding signal of 0.206 E-score.

CAGACTGG: the binding signal is -0.0444 E-score. In turn, AAACCATA gave a binding signal of 0.166 E-score. For CATACTCC the value was -0.0183 E-score; for GCTCCCCC, -0.494 E-score; for CTCGGGAC, -0.164 E-score. Take AAGTACAA: the binding signal was found to be 0.276 E-score. Then AATGTGCG, with 0.0329 E-score. For CTTCCTTC the value was -0.205 E-score; for AGCCACGA, 0.0501 E-score; for TTAGGCAA, -0.017 E-score.

Consider TAACTTAA, for which the binding signal amounted to 0.205 E-score. The sequence GGCAATTA came in with a binding signal of 0.168 E-score. As for CACAGAGG, the binding signal was -0.119 E-score.

CAGCTTTA displayed a binding signal of 0.119 E-score. Then TGTTCCAA, with -0.165 E-score.

Regarding CGTAAAGA, the binding signal was -0.0014 E-score. The sequence CGCCTTTA displayed a binding signal of -0.317 E-score. AACTGTCG showed a binding signal of 0.0211 E-score. On to AAATTGGT, for which the binding signal is 0.167 E-score. As to GCTCACCC, the binding signal was -0.372 E-score. With CATTGACA, the binding signal stood at 0.0572 E-score.

ATTAAGCA returned a binding signal of 0.0409 E-score. Take CTACGGCA: the binding signal was 0.0888 E-score. CATGAAGA came in with a binding signal of -0.0315 E-score. On to ACGTGCTG, for which the binding signal came to 0.0174 E-score. For the sequence TACGAGCA, the binding signal was determined as 0.0667 E-score. ACGTTCAG displayed a binding signal of -0.159 E-score. AAGCCCCA returned a binding signal of -0.376 E-score. In turn, GACCGCTA displayed a binding signal of 0.0771 E-score. Turning to AGGGCCGA, the binding signal was -0.309 E-score. For AATTTGCA the value was 0.0774 E-score; for ACGCACTG, 0.00561 E-score.

Regarding CCAGATAG, the binding signal stood at 0.188 E-score. GGCTCCAC showed a binding signal of -0.258 E-score. In turn, CCGATGAA yielded a binding signal of -0.0937 E-score.

GGCTAGCC showed a binding signal of -0.21 E-score. For AAACAACA, the binding signal is 0.0398 E-score.

The sequence CGTAGCTC returned a binding signal of 0.0159 E-score. Regarding CGCAAAAA, the binding signal was determined as 0.0475 E-score.

As for TAGGCAAA, the binding signal was found to be 0.0124 E-score. Consider AGTCTATC, for which the binding signal amounted to 0.0612 E-score.

For the sequence AGCTAGCT, the binding signal was found to be 0.0639 E-score. For CCTGGGCC the value was -0.173 E-score; for GACAGGAC, -0.193 E-score; for ATTAGAAA, 0.233 E-score.

For the sequence CAAAAACC, the binding signal was -0.0284 E-score. For GATCAGAC the value was -0.039 E-score; for CGCGAAAG, -0.235 E-score. CCCGGTAA returned a binding signal of 0.0826 E-score.

Take CGTAATCC: the binding signal was -0.0881 E-score.

As to GGCATGCA, the binding signal was -0.174 E-score. AAAGACTT: the binding signal was -0.0323 E-score. For the sequence ATTATCCG, the binding signal is -0.0462 E-score. As for AAAAGGTA, the binding signal amounted to 0.246 E-score. Regarding ACTGGGAG, the binding signal is -0.013 E-score. Then ATTGCAAT, with 0.256 E-score. As to AAAAAGAA, the binding signal came out at 0.0931 E-score. ACTAACTC: the binding signal turned out to be 0.12 E-score. For the sequence GTGCGCTA, the binding signal is -0.149 E-score.

CAATGACC showed a binding signal of -0.193 E-score.

ATAAACCC: the binding signal is -0.102 E-score. ATCCCTGA gave a binding signal of -0.0995 E-score. For AGATTTCC the value was 0.135 E-score; for GCCCGTGA, -0.329 E-score; for AATCTCAG, -0.0198 E-score. GAATAGCA yielded a binding signal of 0.11 E-score.
